Part of at least one peptide drawing is inferred or uncertain, most often the ends. Some compounds share one range, which may span the group rather than tell each member. Square brackets hold non-standard residues; d marks the D form. Ends that are not written are not given here. Peptide text beside a SMILES is read from it.
Experiments:
collagen gels = conditions: Grinnell et al. 1989; U.S. Pat. No. 4,957,902; cited from earlier work
CTT-18 cells = experiment: Peptide collagen gel contraction assay; type: cell-based, human; conditions: for gel contraction, dose-response: 24 hr incubation, gel area normalized to control gel without peptide, FIG. 1; for inhibition of gel contraction as compared to contraction of a control gel (no peptide): various times after addition; for gel area as % of the gel area in the absence of any peptide: 24 hours incubation
Protocol: CTT-18 cells, which are a normal human colon fibroblast cell line available from ATCC (#1459-CRL), were used in the gel contraction assays. Subconfluent CTT-18 cells were harvested by trypsinization, neutralized with soybean trypsin inhibitor, then washed several times with serum-free Dulbecco's modified Eagle's medium (DMEM). The cells were resuspended at 5×10^6 cells/ml in DMEM.
The collagen solution was prepared by combining the following reagents in the stated order: 1× DMEM, 1× insulin/transferrin/selenium (ITS; Collaborative Research; Bedford Mass.), 25 mM HEPES, 2.5 mg/ml rat tail collagen I (Collaborative Research). The solution was adjusted to pH 7.4 using 2M NaOH and deionized water was added to the appropriate final volume. Finally, 5×10^4 cells/ml (DMEM) were added to the solution and 0.6 ml of the combined solution was added to each well of a 24 well plate. The solution was allowed to gel for 1 hr at 37° C.
Peptides were diluted to 4.5 mM in 1× DMEM/1× ITS/1× penicillin/1× streptomycin and the solution was adjusted to pH 7.4. Each gel was overlayed with 0.6 ml peptide solution and the gel periphery was rimmed to release the gel from the edge of the well. The gels were incubated at 37° C. and each gel area was monitored daily by planimetry using a computerized planimetry program (Digitize, Macintosh).
In addition to determining the area of a gel, a replicate gel for each experimental condition was examined each day for cell viability. To determine cell viability, the overlay media was removed and replaced with 4 mg/ml collagenase type 2 (Worthington Biochemical; Freehold N.J.) in collagen digestion buffer (0.13M NaCl, 0.01M Ca acetate, 0.02M HEPES, pH 7.2). The sample was incubated at 37° C. until digestion was complete (about 1 hr). The solution was centrifuged at 3000 rpm in a microcentrifuge for 5 min and the pellet resuspended in trypsin/EDTA and incubated for 20 min at 37° C. The solution again was centrifuged, the pellet resuspended in 40 μl 0.4% trypan blue and the viable cells were counted in a hemocytometer. In general, the variations in cell viability were slight, and it was unnecessary to correct the gel contraction results due to significant differences in cell viability.

N=C(N)NCCC[C@H](NC(=O)CN)C(=O)NCC(=O)N[C@@H](CC(=O)O)C(=O)N[C@@H](CO)C(=O)N1CCC[C@H]1C(=O)O [GRGDSP, reference compound]
effect on contraction of collagen gels (collagen gels): enhanced gel contraction | gel contraction, dose-response (CTT-18 cells): greater level of contraction than occurred in the absence of any peptide

N=C(N)NCCC[C@H](NC(=O)CN)C(=O)NCC(=O)N[C@@H](CC(=O)O)C(=O)N[C@@H](CO)C(=O)N1CCC[C@H]1C(=O)N[C@@H](CCCCN)C(=O)O [GRGDSPK, reference compound]
inhibition of gel contraction (CTT-18 cells; 1.0 mM peptide, various times): did not inhibit gel contraction

C[C@H](NC(=O)[C@@H]1CCCN1C(=O)[C@H](CO)NC(=O)[C@H](CC(=O)O)NC(=O)CNC(=O)[C@@H](CCCNC(=N)N)NC(=O)CNC(=O)CNC(=O)CNC(=O)[C@@H](CCCNC(=N)N)NC(=O)[C@@H](CCCNC(=N)N)NC(=O)[C@@H](CCCNC(=N)N)NC(=O)[C@@H](CCCNC(=N)N)NC(=O)[C@@H](CCCNC(=N)N)NC(=O)CN)C(=O)N[C@@H](CO)C(=O)N[C@@H](CO)C(=O)N[C@@H](CCCCN)C(=O)O [WH18, G-{(D)R}5 -GGG- (D)R-GDSPASSK] (H-G[dR][dR][dR][dR][dR]GGG[dR]GDSPASSK-OH)
gel contraction at low concentrations (CTT-18 cells; 0-1.0 mM peptide, 24 hr, FIG. 2): gel contraction was inhibited at all concentrations of WH18 examined | inhibition of gel contraction as compared to contraction of a control gel (no peptide) (CTT-18 cells; 1.0 mM peptide): 20-25% | gel contraction, dose-response (CTT-18 cells): inhibited in a dose-dependent manner

CC[C@H](C)[C@H](NC(=O)[C@H](CC(=O)O)NC(=O)CNC(=O)[C@@H](CCCNC(=N)N)NC(=O)CNC(=O)CNC(=O)CNC(=O)[C@@H](CCCNC(=N)N)NC(=O)[C@@H](CCCNC(=N)N)NC(=O)[C@@H](CCCNC(=N)N)NC(=O)[C@@H](CCCNC(=N)N)NC(=O)[C@@H](CCCNC(=N)N)NC(=O)CN)C(=O)N1CCC[C@H]1C(=O)N[C@@H](C)C(=O)N[C@@H](CO)C(=O)N[C@@H](CO)C(=O)N[C@@H](CCCCN)C(=O)O [WH18Ile, G-{(D)R}5 -GGG- (D)R-GDIPASSK] (H-G[dR][dR][dR][dR][dR]GGG[dR]GDIPASSK-OH)
inhibition of gel contraction as compared to contraction of a control gel (no peptide) (CTT-18 cells; 1.0 mM peptide): 20-25%

C[C@H](NC(=O)[C@@H](CCCNC(=N)N)NC(=O)CNC(=O)CNC(=O)CNC(=O)[C@@H](CCCNC(=N)N)NC(=O)[C@@H](CCCNC(=N)N)NC(=O)[C@@H](CCCNC(=N)N)NC(=O)[C@@H](CCCNC(=N)N)NC(=O)[C@@H](CCCNC(=N)N)NC(=O)CN)C(=O)N[C@@H](CC(=O)O)C(=O)N[C@@H](CO)C(=O)N1CCC[C@H]1C(=O)N[C@@H](C)C(=O)N[C@@H](CO)C(=O)N[C@@H](CO)C(=O)N[C@@H](CCCCN)C(=O)O [WH18RAD, G-{(D)R}5 -GGG- (D)R-ADSPASSK] (H-G[dR][dR][dR][dR][dR]GGG[dR]ADSPASSK-OH)
inhibition of gel contraction as compared to contraction of a control gel (no peptide) (CTT-18 cells; 1.0 mM peptide): 20-25%

Ac-RRRGGRGDIPK [AcRRRGGRGDIPK]
gel area as % of control gel area (CTT-18 cells): 133%

GRRGRRGRGDT [GRRGRRGRGDT]
gel area as % of control gel area (CTT-18 cells): 160%

GRRRGGRGDIPT [GRRRGGRGDIPT]
gel area as % of control gel area (CTT-18 cells): 150%

GRRRRGGGRGDIPT [GRRRRGGGRGDIPT]
gel area as % of the gel area in the absence of any peptide (CTT-18 cells; 1.0 mM peptide): 133%

GRRRRRGGRGDIPT [GRRRRRGGRGDIPT]
gel area as % of the gel area in the absence of any peptide (CTT-18 cells; 1.0 mM peptide): 130%

RRRRGRGDIPT [RRRRGRGDIPT]
gel area as % of the gel area in the absence of any peptide (CTT-18 cells; 1.0 mM peptide): 130%

YGRRRRRQRRRP [Peptide 15P, YGRRRRRQRRRP]
inhibition of gel contraction as compared to contraction of a control gel (no peptide) (CTT-18 cells; 1.0 mM peptide): 20-25%

Source: US5851994A, “Compositions that inhibit wound contraction and methods of using same” (La Jolla Cancer Research Foundation, priority 1995, dated 1998)
